# Measured values as given in PubChem BioAssay (Tox21).
# Several values for one entry are separate records, joined by “and”; a condition that tells them apart may be missing. Identical values can stand only once. This list was built around the results that the source calls inconclusive (neither active nor inactive); the mix of calls is not that of the screen. Where the call is inconclusive, the potency comes from a doubtful curve fit. Where a structure was tested more than once in an assay, its records may differ in their call. Activity calls are given as the source filed them. Unless noted, calls follow the shape of the dose curve; as a rule, active = well fitted curve in the direction sought with a large enough effect in the repeat runs; inconclusive = weak or mixed curves; inactive = no such curve, though single readings can be large; an effect the other way counts as inactive or inconclusive.
# Tested on: not listed separately
# Assay: qHTS assay to identify small molecule antagonists of the TGF-beta/Smad signaling pathway (AID 1346924; active = well fitted inhibition curve with a large enough effect in the signal ratio in the repeat runs, not every such curve was filed as active; inconclusive = weak or mixed curves; the % refers to the signal ratio)
# Conditions: SBE-bla HEK293T, TGF-beta/Smad reporter, beta-lactamase ratio; activity, negative = inhibition: at 76.8 µM (top of the series) unless noted
# Summary of the method: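 SBE-bla HEK 293T cells were plated overnight, then received compound in DMSO plus TGF-beta1 (added as a 0.25 ng/mL solution) and were incubated 5 h at 37 C. Beta-lactamase reporter activity was read after 2 h at room temperature with LiveBLAzer B/G FRET substrate (ex 405, em 460/530 nm).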
# Potency is read from the fitted curve at half-maximal effect; tags tell the direction and shape of the fitted curve or compound fluorescence and quenching.
Structure (SMILES),"activity, negative = inhibition",Potency
COC(=O)C1=C(C)NC(C)=C(C(=O)OCCN2CCN(C(c3ccccc3)c3ccccc3)CC2)C1c1cccc([N+](=O)[O-])c1 (configuration not stated),inconclusive: 0.64% [at 35.3 µM],–
CC(C)(CO)[C@@H](O)C(=O)NCCCO,inconclusive: 13.6% [at 35.3 µM],–
COC(=O)c1ccc(C(=O)OC)cc1,inconclusive: -11.8%,–
COc1ccc(Cl)cc1C(=O)NCCc1ccc(S(=O)(=O)NC(=O)NC2CCCCC2)cc1,–,"inconclusive: 38.9 µM [fluorescent, partial curve] and inconclusive: 84.9 nM [cytotoxic, single point]"

# Tested on: not listed separately
# Assay: Human pregnane X receptor (PXR) small molecule agonists, qHTS cell viability counter screen (AID 1346977); also: nearly all actives have a fitted effect of over 50% in size; as to activity change, negative = cytotoxicity: % is scaled to controls: 0 for no effect and ±100 for the full control effect
# Conditions: PXR-Luc HepG2 viability, CellTiter-Fluor, 24 h; series mostly up to 92.4 µM
# Summary of the method: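 After a 5hr pre-incubation, PXR-Luc HepG2 cells received compounds plus positive control in DMSO and were kept 24hr at 37C. Cell viability was quantified by fluorescence from CellTiter-Fluor added for the final hour.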
row,Structure (SMILES),Potency
1,O=C1C(=O)c2ccccc2C(O)=C1C1CCC(c2ccc(Cl)cc2)CC1 (configuration not stated),active: 11.9 µM
2,CC[C@H]1OC(=O)[C@H](C)[C@@H](O[C@H]2C[C@@](C)(OC)[C@@H](O)[C@H](C)O2)[C@H](C)[C@@H](O[C@@H]2O[C@H](C)C[C@H](N(C)C)[C@H]2O)[C@](C)(O)C[C@@H](C)CN(C)[C@H](C)[C@@H](O)[C@]1(C)O,active: 18.1 µM
3,Cc1cc(-c2ccc(N=Nc3cc(S(=O)(=O)O)c4ccccc4c3N)c(C)c2)ccc1N=Nc1cc(S(=O)(=O)O)c2ccccc2c1N,inconclusive: 12.3 µM [cytotoxic]
4,CC1=C(/C=C/C(C)=C/C=C/C(C)=C/CO)C(C)(C)CCC1,"inconclusive: 70.8 µM [cytotoxic, partial curve, poor fit]"
5,O=C1c2ccccc2C(=O)c2c(O)c(O)cc(O)c21,active: 54.5 µM
6,COC(=O)C1=C(C)NC(C)=C(C(=O)OCCN2CCN(C(c3ccccc3)c3ccccc3)CC2)C1c1cccc([N+](=O)[O-])c1 (configuration not stated),"inconclusive: 26.6 µM [cytotoxic, partial curve]"
7,COC(=O)c1ccc(C(=O)OC)cc1,active: 7.08 µM and inactive

# Tested on: not listed separately
# Assay: Caspase-3/7 induction in CHO-K1 cells by small molecules, qHTS cell viability counter screen (AID 1346979); also: nearly all actives have a fitted effect of over 35% in size; as to activity change, negative = cytotoxicity: % is scaled to controls: 0 for no effect and ±100 for the full control effect
# Conditions: CellTiter-Fluor fluorescence, 17 h; activity change, negative = cytotoxicity: at 92.4 µM (top of the series)
# Summary of the method: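 Multiplexed with Caspase-Glo 3/7 in CHO-K1 cells, this counter screen added CellTiter-Fluor after 16hr of compound exposure and recorded fluorescence 1hr later.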
row,Structure (SMILES),Potency
1,CCCC/C=C/C=C\C=O,inactive
2,O=C1C(=O)c2ccccc2C(O)=C1C1CCC(c2ccc(Cl)cc2)CC1 (configuration not stated),active: 16.8 µM
3,CC(C(=O)O)c1ccc2c(c1)[nH]c1ccc(Cl)cc12 (configuration not stated),"inconclusive: 11.9 µM [rising, full curve]"
4,COC(=O)c1ccc(C(=O)OC)cc1,active: 0.78 µM

# Tested on: not listed separately
# Assay: Caspase-3/7 induction in HepG2 cells by small molecules, qHTS cell viability counter screen (AID 1346981); also: nearly all actives have a fitted effect of over 30% in size
# Conditions: CellTiter-Fluor fluorescence, 17 h; series mostly up to 92.4 µM
# Summary of the method: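 HepG2, WT, 2,000 cells/well; 5 hr pre-incubation 37 C/5% CO2; compound pin-transferred from DMSO; 16 hr exposure; CellTiter-Fluor, 1 hr; fluorescence read.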
row,Structure (SMILES),Potency
1,O=C1C(=O)c2ccccc2C(O)=C1C1CCC(c2ccc(Cl)cc2)CC1 (configuration not stated),"inconclusive: 13.3 µM [cytotoxic, full curve]"
2,O=C1c2ccccc2C(=O)c2c(O)c(O)cc(O)c21,active: 54.5 µM
3,COC(=O)C1=C(C)NC(C)=C(C(=O)OCCN2CCN(C(c3ccccc3)c3ccccc3)CC2)C1c1cccc([N+](=O)[O-])c1 (configuration not stated),"inconclusive: 29.8 µM [cytotoxic, partial curve]"
4,COC(=O)c1ccc(C(=O)OC)cc1,"inconclusive: 69.5 µM [cytotoxic, single point]"

# Target: Nuclear receptor subfamily 1 group I member 2 (Homo sapiens) (UniProt O75469)
# Assay: Human pregnane X receptor (PXR) small molecule agonists, qHTS assay (AID 1346982); also: nearly all actives have a fitted effect of over 35% in size; as to activation: % is scaled to controls: 0 for no effect and ±100 for the full control effect
# Conditions: PXR-Luc HepG2, CYP3A4 luciferase reporter, 24 h; series mostly up to 92.4 µM
# Summary of the method: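 Luciferase signal from ONE-Glo (30 min, room temperature) measured activation of hPXR-driven CYP3A4 reporter expression in PXR-Luc HepG2 cells treated with compounds for 24 hr at 37 C.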
# Chain of UniProt O75469 (O75469 whole entry, looked up): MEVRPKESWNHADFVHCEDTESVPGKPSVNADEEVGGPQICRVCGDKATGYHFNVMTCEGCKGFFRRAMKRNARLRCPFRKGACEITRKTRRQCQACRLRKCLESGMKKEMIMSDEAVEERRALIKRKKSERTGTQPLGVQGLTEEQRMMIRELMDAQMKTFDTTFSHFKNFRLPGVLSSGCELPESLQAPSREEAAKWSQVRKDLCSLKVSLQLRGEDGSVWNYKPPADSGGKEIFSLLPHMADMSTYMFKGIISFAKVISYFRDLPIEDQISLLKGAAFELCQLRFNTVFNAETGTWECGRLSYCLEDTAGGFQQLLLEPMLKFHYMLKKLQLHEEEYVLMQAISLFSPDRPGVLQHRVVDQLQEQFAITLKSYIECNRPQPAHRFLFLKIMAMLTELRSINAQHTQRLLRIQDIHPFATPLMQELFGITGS
row,Structure (SMILES),Potency
1,O=C1C(=O)c2ccccc2C(O)=C1C1CCC(c2ccc(Cl)cc2)CC1 (configuration not stated),"inconclusive: 13.3 µM [activator, single point]"
2,O=C1c2ccccc2C(=O)c2c(O)c(O)cc(O)c21,inactive
3,C=C[Si](OCCOC)(OCCOC)OCCOC,"inconclusive: 24.3 µM [activator, partial curve, poor fit]"
4,CC1(C)O[C@@H]2C[C@H]3[C@@H]4C[C@H](F)C5=CC(=O)CC[C@]5(C)[C@H]4[C@@H](O)C[C@]3(C)[C@]2(C(=O)CO)O1,"inconclusive: 30.6 µM [activator, partial curve]"
5,COC(=O)c1ccc(C(=O)OC)cc1,active: 2.2 µM
6,OCCNCCO,active: 54.5 µM

# Target: Nuclear receptor subfamily 1 group I member 2 (Rattus norvegicus) (UniProt Q9R1A7)
# Assay: Rat pregnane X receptor (rPXR) activation by small molecules, qHTS assay (AID 1346983); also: nearly all actives have a fitted effect of over 20% in size
# Conditions: rPXR luciferase reporter cells, One-Glo luminescence, 24 h; max activation: stronger effect = higher value
# Summary of the method: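 Luminescent readout (One-Glo luciferase, 30 min room temperature) followed 24 hr compound treatment at 37 C of rPXR cells plated 2,000 per well and preincubated 5hr; qHTS format with compounds delivered in DMSO.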
# Chain of UniProt Q9R1A7 (Q9R1A7 whole entry, looked up): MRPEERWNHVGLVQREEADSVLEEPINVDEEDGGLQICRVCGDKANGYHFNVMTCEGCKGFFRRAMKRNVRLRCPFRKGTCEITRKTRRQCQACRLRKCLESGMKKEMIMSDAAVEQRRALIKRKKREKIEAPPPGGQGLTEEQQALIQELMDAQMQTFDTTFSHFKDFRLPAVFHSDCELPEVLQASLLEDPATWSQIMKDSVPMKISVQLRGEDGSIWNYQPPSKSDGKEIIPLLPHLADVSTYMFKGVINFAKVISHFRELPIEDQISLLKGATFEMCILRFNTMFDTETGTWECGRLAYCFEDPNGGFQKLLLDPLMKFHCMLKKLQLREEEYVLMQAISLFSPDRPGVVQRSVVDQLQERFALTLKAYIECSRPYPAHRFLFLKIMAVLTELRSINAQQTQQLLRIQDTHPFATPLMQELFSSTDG
row,Structure (SMILES),Potency
1,CC[C@H]1OC(=O)[C@H](C)[C@@H](O[C@H]2C[C@@](C)(OC)[C@@H](O)[C@H](C)O2)[C@H](C)[C@@H](O[C@@H]2O[C@H](C)C[C@H](N(C)C)[C@H]2O)[C@](C)(O)C[C@@H](C)CN(C)[C@H](C)[C@@H](O)[C@]1(C)O,"inconclusive: 14.1 µM [activator, single point]"
2,CC1(C)O[C@@H]2C[C@H]3[C@@H]4C[C@H](F)C5=CC(=O)CC[C@]5(C)[C@H]4[C@@H](O)C[C@]3(C)[C@]2(C(=O)CO)O1,"inconclusive: 7.94 µM [activator, partial curve, poor fit]"
3,COC(=O)C1=C(C)NC(C)=C(C(=O)OCCN2CCN(C(c3ccccc3)c3ccccc3)CC2)C1c1cccc([N+](=O)[O-])c1 (configuration not stated),"inconclusive: 10 µM [activator, partial curve]"

# Target: Cytochrome P450 2D6 (Homo sapiens) (UniProt P10635)
# Assay: Cytochrome P450 Family 2 Subfamily D Member 6 (CYP2D6) small molecule antagonists: luciferase reporter qHTS assay (AID 1671196); also: nearly all actives have a fitted effect of over 50% in size; as to activity change, negative = inhibition: % is scaled to controls: 0 for no effect and ±100 for the full control effect
# Conditions: P450-Glo CYP2D6 enzyme assay, luciferin luminescence, 1 h; series mostly up to 115 µM
# Summary of the method: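 Read-out is luminescence from luciferin formed by CYP2D6 turnover of a proluciferin substrate, recorded as relative luminescence units. Reactions ran 1 h at room temperature after NADPH regeneration solution was added.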
# Chain of UniProt P10635 (P10635 whole entry, looked up): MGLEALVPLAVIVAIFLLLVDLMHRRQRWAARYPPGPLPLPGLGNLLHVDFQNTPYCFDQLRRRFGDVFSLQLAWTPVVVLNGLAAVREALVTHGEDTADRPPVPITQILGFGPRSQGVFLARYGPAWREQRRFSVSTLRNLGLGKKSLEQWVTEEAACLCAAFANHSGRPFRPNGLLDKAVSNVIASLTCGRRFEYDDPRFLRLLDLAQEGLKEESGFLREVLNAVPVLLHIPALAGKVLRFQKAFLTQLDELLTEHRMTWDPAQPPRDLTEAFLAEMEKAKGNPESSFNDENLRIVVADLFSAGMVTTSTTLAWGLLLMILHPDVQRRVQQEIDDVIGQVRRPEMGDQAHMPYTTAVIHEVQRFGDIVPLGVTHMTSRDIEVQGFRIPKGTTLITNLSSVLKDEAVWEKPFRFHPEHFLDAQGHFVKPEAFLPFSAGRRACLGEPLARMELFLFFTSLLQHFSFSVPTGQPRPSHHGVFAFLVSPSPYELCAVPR
Structure (SMILES),Potency,"activity change, negative = inhibition"
CCCC/C=C/C=C\C=O,"inconclusive: 63.3 µM [inhibitor, partial curve]",–
O=C(O)c1cc(C(=O)O)cc(S(=O)(=O)O)c1,"active: 36 µM and inconclusive: 20 µM [inhibitor, partial curve]",–
CC(C(=O)O)c1ccc2c(c1)[nH]c1ccc(Cl)cc12 (configuration not stated),inactive,–
CC1=C(/C=C/C(C)=C/C=C/C(C)=C/CO)C(C)(C)CCC1,"inconclusive: 40.4 µM [inhibitor, partial curve] and inconclusive: 74.8 µM [inhibitor, partial curve]",–
OC[C@H]1O[C@H](O[C@H]2O[C@H](CO)[C@@H](O)[C@H](O)[C@H]2O)[C@H](O)[C@@H](O)[C@@H]1O,"inconclusive: 71.4 µM [inhibitor, partial curve]",–
C=C[Si](OCCOC)(OCCOC)OCCOC,active: 28.4 µM and inactive,–
COC(=O)c1ccc(C(=O)OC)cc1,inactive,–
OCCNCCO,inactive,–
CCC(Cl)CC(Cl)C(Cl)C(Cl)C(Cl)C(C)Cl (configuration not stated),–,inactive: -20% [at 23.6 µM]
